Assay results from PMC12136788.
The other results are listed elsewhere or left out.

T1: UNK ZnF1-6 (called full-length) (human, UniProt Q9C0B0 30-357)
T1 sequence: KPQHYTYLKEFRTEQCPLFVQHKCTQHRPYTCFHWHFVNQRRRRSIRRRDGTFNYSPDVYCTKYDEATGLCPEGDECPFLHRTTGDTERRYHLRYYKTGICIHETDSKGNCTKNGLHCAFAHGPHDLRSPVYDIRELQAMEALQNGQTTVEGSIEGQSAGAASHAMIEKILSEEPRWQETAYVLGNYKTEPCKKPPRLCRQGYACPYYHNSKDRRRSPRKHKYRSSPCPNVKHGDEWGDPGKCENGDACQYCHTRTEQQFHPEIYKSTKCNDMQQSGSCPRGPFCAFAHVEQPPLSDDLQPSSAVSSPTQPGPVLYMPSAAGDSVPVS

B1: chr6:52752853:52752995:-|CDS|ENSG00000244067|control|control|control (ssRNA)
RNA: GGGAGUUCUACAGUCCGACGAUCAUUGAUAUGUAUAUAGAAGGUAUAGCAGAUUUGGGUGAAAUGAUCCUUCUUCUGCCCUUUAGUCAACCUGAGGAACAAGAUGCCAAGCUUGCCUUGAUCCAAGAGAAAACAAAAAAUCGCCAACAGAGGAUUGAGCAUCA
B2: chr16:70532473:70532607:+|CDS|ENSG00000189091|unk|total|mutant (ssRNA)
RNA: GGGAGUUCUACAGUCCGACGAUCCAAUGAUCCAACAGGGGAAGCAGCAGCUAAUACCCAGCAGACACUUACUUUCUAUGAGCCCGACCUUGGUUUAAAUCAUGUGGUCCGAAAAUACAGUGAACCUUUGGAGGAACACGGCAACAACAGAGGAUUGAGCAUCA
B3: chr4:41013971:41014072:-|CDS|ENSG00000163697|msi1|FALSE|unique (ssRNA)
RNA: GGGAGUUCUACAGUCCGACGAUCGCAGGACCCCAACAAAAACCUGAGCCCCACUGCAGUCAUCAACAUAACUUCUGAGAAGUUAGAGGGUAAAGAGCCCCACCCACAGGAUUCCUCGAGCUGUGAGAUUUUACCCUCCCAGCCCAACAGAGGAUUGAGCAUCA
B4: chr2:40113585:40113686:-|3pUTR|ENSG00000183023|msi1|FALSE|unique (ssRNA)
RNA: GGGAGUUCUACAGUCCGACGAUCUCAUUUUAUUUUUUUACUUAAAAGGCUAUUUUGAGCCCUGUUUCUUUCACUGUCCAGUCUAGUCCUCUUUGAUUAUAUCAGUAGUUGCUGAGUAAGAAAGAAGCCAGGGUGACCAACGGGCAACAGAGGAUUGAGCAUCA
B5: chr9:34253332:34253433:-|3pUTR|ENSG00000186638|unk|FALSE|unique (ssRNA)
RNA: GGGAGUUCUACAGUCCGACGAUCCUCUGAAACAGAAUUCACACACAAACCUUCAGCCAAGUUCUGCCUGCUGUGUAUCUUUUUAGCAGGAAGCAGCUCAGGACAGGGAAGACAAAGUAGCCUCCAGGUGCCAAUUACUUUAAACAACAGAGGAUUGAGCAUCA
B6: chr20:37241422:37241523:+|3pUTR|ENSG00000118705|msi1_unk|FALSE|overlapping (ssRNA)
RNA: GGGAGUUCUACAGUCCGACGAUCGUAUGAGAAGAAAAAUGGAAAAAAAAAACUUUAUUUAAAAAAGAAAAAAGUCCAGAUUGUAGUUAUACUUUUGCUUGUUUUUCAGUUUCCCCAACACACAGCAGAUACCUGGUGAGCUCACAACAGAGGAUUGAGCAUCA
B7: chr10:72012227:72012328:+|3pUTR|ENSG00000122863|msi1|FALSE|unique (ssRNA)
RNA: GGGAGUUCUACAGUCCGACGAUCCAAUGGAAGGAGCUUCAGCAGGAGGUCCUUCCCAGAAGGUUGAUUCUUGGCCUGGGUGGUAGAGGAGAUAUCCUGACCCUAAAGUCUUCCAGCCCCGGGUCAUCCUCUCCUAUACUAGGGCAACAGAGGAUUGAGCAUCA
B8: ENSG00000173273:stop:overlap|stop_codon|ENSG00000173273|stop_codon|NA|stop_codon (ssRNA)
RNA: GGGAGUUCUACAGUCCGACGAUCACCAGAUCAUGAAGCCAGAAGCCCCUUCCCAGACCGCAACAGCCGCAGAGCAGAAGACCUAGUGAAUGCCUGCUGGUGAAGGCCAGAUCAGAUUUCAACCUGGGACUGGAUUACAGAGGACAACAGAGGAUUGAGCAUCA
B9: chr13:24434660:24434761:-|CDS|ENSG00000102699|unk|total|mutant (ssRNA)
RNA: GGGAGUUCUACAGUCCGACGAUCCCCUCUGCUUCCUCUCCUUUUCAUUUUCAACCUUCCGCAGCCUCUUUGACUGCCAACCUCCGGCUGCCAAUGGCCUCUGCUUUACCUGAGGCUCUUUGCAGUCAGUCCCGGACUACCCCACAACAGAGGAUUGAGCAUCA
B10: ENSG00000112335:stop:overlap|stop_codon|ENSG00000112335|stop_codon|NA|stop_codon (ssRNA)
RNA: GGGAGUUCUACAGUCCGACGAUCAGGCAAGGAGUCAUGGAAGGACGUGGUGUGCUCAGAAUGAUGAAAAGUUAUUUUGUGACUAGAAAGUCGUAGUUCCCCCGCUCCCUGGGAAAGCGUUUUUGCGUCAGCUUCCUUUUAGAGCAACAGAGGAUUGAGCAUCA
B11: chr1:158329851:158330130:-|CDS|ENSG00000158485|control|control|control (ssRNA)
RNA: GGGAGUUCUACAGUCCGACGAUCCAUAGCAGGCUGUGAGCUACAUUCUGGAGGUGCCAUAGUAAGCUUCCUGAGGGGAGCUCUAGGAGGAUUGGAUUUCCUGAGUGUCAAGAAUGCUUCAUGUGUGCCUUCCCCAGAAGGUGGCAACAGAGGAUUGAGCAUCA
B12: chr15:63774837:63774950:-|CDS|ENSG00000103657|unk|total|mutant (ssRNA)
RNA: GGGAGUUCUACAGUCCGACGAUCGUAACAACAUUUCUUAAAGGAGUCACUAUUCCUAAUUCUGGGGCAGACACUUCCGGUCGCCGAUCCGCUUCUGAGUUGCUGCUUGGUUUGGCAGCUCAACGAGGCUCAUUGCGAUAUCUUCAACAGAGGAUUGAGCAUCA
B13: chr2:209733988:209734100:+|3pUTR|ENSG00000078018|unk|FALSE|unique (ssRNA)
RNA: GGGAGUUCUACAGUCCGACGAUCUCUGAUAAUUCUAGAGCCUGUUACCAUAGAAAGGCAUUUCUUCAAUGGCUGGUUGUAGUUAGUUCAUGUUUUUCAAUCAAAUUUGCAAAUGUAUUUGUUGCUGUAUAGUGAUUGUUUUGCCAACAGAGGAUUGAGCAUCA
B14: chr6:108211900:108211976:-|3pUTR|ENSG00000112335|msi1_unk|FALSE|overlapping (ssRNA)
RNA: GGGAGUUCUACAGUCCGACGAUCGUUGACAAGAAGUUAAUUUGCUUUAGUAAAAAUCCCUCAUUCCAGCCUUUCUAUAUAAAUAGCUCUUUCUUGCUGUUUUAAUGUGGUGCACACUAUAGCCUCACAAACCUGUUAUUCCAGCAACAGAGGAUUGAGCAUCA

These binders were tested against T1, UNK ZnF1-6 (called full-length) (assay: nsRBNS (natural sequence RNA bind-n-seq); RBNS binding buffer (assumed for nsRBNS): 25 mM Tris pH 7.5, 150 mM KCl, 3 mM MgCl2, 0.01% Triton X-100, 500 ug/ml BSA, 20 U/ml SUPERase-In, 4 C; UNK is unkempt and MSI1 is Musashi-1; names of the RNAs are library labels; protein concentration not given here; high values mean tight binding).

Binder | binding signal [enrichment R]
B1 | 0.361
B2 | 0.484
B3 | 0.874
B4 | 0.924
B5 | 0.715
B6 | 0.6
B7 | 0.684
B8 | 1.24
B9 | 0.906
B10 | 0.362
B11 | 0.764
B12 | 0.574
B13 | 1.4
B14 | 0.942
